# According to PubChem BioAssay AID1347165 (National Center for Advancing Translational Sciences (NCATS), 2019):
# Several values for one entry are separate records, joined by “and”; a condition that tells them apart may be missing. Equal values may be shown once. Out of some 220,000 compounds screened, about 5,700 (2.6%) were called active. The inconclusive results got no clear call from the source; some entries with a clear call stand among them for comparison. Calls come from the whole dose curve; as a rule, active = well fitted inhibition curve with a large enough effect; inconclusive = small, poorly fitted or top-dose-only effect; inactive = no such curve, though single readings can be large or run the other way. Where the call is inconclusive, the potency comes from a doubtful curve fit.
# Biological target: Lysine-specific demethylase 5B (Homo sapiens) (UniProt Q9UGL1)
# Sequence of UniProt Q9UGL1 (Q9UGL1 whole entry, looked up): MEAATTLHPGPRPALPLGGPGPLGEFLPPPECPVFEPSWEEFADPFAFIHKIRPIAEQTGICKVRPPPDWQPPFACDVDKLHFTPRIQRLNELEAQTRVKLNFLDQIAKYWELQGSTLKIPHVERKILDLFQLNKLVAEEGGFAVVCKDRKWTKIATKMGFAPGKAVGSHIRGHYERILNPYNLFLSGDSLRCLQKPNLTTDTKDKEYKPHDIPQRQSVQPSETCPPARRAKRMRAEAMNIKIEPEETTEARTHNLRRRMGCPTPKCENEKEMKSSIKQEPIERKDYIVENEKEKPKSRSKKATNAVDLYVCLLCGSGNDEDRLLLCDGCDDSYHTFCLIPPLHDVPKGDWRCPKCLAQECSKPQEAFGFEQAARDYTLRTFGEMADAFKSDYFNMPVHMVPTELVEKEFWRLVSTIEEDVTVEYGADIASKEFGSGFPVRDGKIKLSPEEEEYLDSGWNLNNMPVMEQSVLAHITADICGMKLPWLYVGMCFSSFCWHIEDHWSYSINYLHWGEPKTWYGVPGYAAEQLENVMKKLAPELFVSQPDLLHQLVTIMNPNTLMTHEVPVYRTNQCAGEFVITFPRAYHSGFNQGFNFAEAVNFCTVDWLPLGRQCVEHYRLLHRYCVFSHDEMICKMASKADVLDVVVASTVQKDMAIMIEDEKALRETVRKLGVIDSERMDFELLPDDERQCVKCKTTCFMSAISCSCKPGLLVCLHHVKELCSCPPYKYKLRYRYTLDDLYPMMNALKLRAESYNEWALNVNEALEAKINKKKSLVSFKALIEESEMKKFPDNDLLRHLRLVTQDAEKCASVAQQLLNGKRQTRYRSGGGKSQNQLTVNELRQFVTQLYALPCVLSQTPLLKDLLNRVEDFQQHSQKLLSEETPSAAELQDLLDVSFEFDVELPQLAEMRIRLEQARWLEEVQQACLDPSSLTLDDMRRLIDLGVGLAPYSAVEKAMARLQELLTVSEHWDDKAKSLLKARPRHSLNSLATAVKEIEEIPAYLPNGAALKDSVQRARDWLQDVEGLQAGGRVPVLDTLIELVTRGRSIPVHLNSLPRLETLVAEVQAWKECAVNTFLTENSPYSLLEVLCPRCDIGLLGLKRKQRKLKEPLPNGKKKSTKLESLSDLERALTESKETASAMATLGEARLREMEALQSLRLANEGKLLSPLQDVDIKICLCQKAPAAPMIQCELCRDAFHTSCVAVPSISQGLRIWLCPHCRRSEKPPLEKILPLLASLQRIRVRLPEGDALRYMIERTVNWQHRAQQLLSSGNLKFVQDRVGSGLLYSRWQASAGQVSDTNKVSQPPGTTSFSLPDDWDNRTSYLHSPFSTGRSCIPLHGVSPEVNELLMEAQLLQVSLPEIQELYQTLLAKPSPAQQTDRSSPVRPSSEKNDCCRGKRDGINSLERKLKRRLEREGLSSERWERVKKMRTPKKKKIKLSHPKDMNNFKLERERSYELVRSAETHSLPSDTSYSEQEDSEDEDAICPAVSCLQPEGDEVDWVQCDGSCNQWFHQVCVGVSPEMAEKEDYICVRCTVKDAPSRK
# Experiment: Primary screen for KDM5B Histone Demethylases FDH-coupled qHTS; note: nearly all actives have a fitted effect of over 70% in size; for activity change, negative = inhibition: 0% is about no effect
# Settings: FDH-coupled NADH fluorescence (FDH is formaldehyde dehydrogenase); activity change, negative = inhibition: at 57.7 µM (top of the series) unless noted
# How it was run: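 Here, H3K4me3 peptide (12.5 µM in substrate mix) is demethylated by KDM5BΔAP, 200 nM final, after 10 min compound exposure. Formaldehyde product is coupled through FDH (0.25 U/mL in mix) to NADH fluorescence; 30-min ΔRFU feeds dose-response curves.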
# Potency is the fitted concentration of half-maximal effect; tags give direction and shape of the fitted curve.
SMILES,Potency,"activity change, negative = inhibition"
COc1ccc(N2C(=O)CSC23C(=O)N(C)c2ccccc23)cc1Cl (stereo not given),"inconclusive: 1.12 µM [inhibitor, full curve, poor fit]",–
CCc1ccccc1Nc1cc(C(=O)NCc2ccc(C)cc2)c2ccccc2n1,"inconclusive: 35.5 µM [inhibitor, partial curve, poor fit]",–
O=C(CN1CCN(c2ccc(O)cc2)CC1)N(Cc1cccs1)C1CCS(=O)(=O)C1 (stereo not given),"inconclusive: 17.8 µM [inhibitor, single point]",–
Cc1cccc(Nc2nc3ccccc3nc2NS(=O)(=O)c2cccc3nsnc23)c1,–,inactive: 10.3%
O=C1Nc2ccccc2CN(Cc2ccccc2)C12CCNCC2,"inconclusive: 28.2 µM [inhibitor, partial curve]",–
COCCn1c(C)cc(O)c(C(c2ccccc2)N2CCC(C)CC2)c1=O (stereo not given),"inconclusive: 1.12 µM [inhibitor, partial curve, poor fit]",–
N#Cc1c(SCC(=O)N2CCOCC2)nc(N2CCCCC2)c2c1CCCC2,–,inactive: 4.74%
CC(C)c1ccc(-c2csc(NC(=O)Cn3ncc4ccccc4c3=O)n2)cc1,–,inactive: 11.4%
CC(C)Cc1cc(C(=O)N2CCc3onc(-c4ccccc4F)c3C2)on1,"inconclusive: 10 µM [inhibitor, partial curve]",–
CC(C)c1ccc(CC(=O)N2CCCc3ncc(C(=O)NCCN4CCCC4)cc32)cc1,"inconclusive: 31.6 µM [inhibitor, partial curve]",–
c1ncc(CN2CCn3c(nnc3C3CCCNC3)C2)s1 (stereo not given),"inconclusive: 50.1 µM [inhibitor, partial curve, poor fit] and inconclusive: 35.5 µM [inhibitor, partial curve, poor fit]",–
O=C(Cn1c(=O)c2c(n1Cc1ccccc1)CN(Cc1ccccc1)CC2)Nc1cccc(F)c1,"inconclusive: 28.2 µM [inhibitor, partial curve, poor fit]",–
CCc1nc2sc(C(C)=O)c(N)c2cc1C,"inconclusive: 25.1 µM [inhibitor, partial curve, poor fit]",–
COc1ccc2cc(C(=O)NCCCN(C)C)[nH]c2c1,"inconclusive: 20 µM [inhibitor, partial curve, poor fit]",–
Cc1ccc(-c2nc3cccc(C)n3c2Nc2ccc3c(c2)OCCO3)cc1,"inconclusive: 28.2 µM [inhibitor, partial curve, poor fit]",–
Cc1cccc(C)c1-c1nc(C(=O)NCc2ccc3c(c2)OCO3)n2ccccc12,active: 28.2 µM,–
CC1=C(C(=O)Nc2ccccc2)C(c2sccc2C)n2nc(-c3ccccc3)nc2N1 (stereo not given),–,inactive: -15.7%
COc1ccc(NC(=O)c2cc3n(n2)CC(c2ccc(Br)cc2)OC3)cc1OC (stereo not given),"inconclusive: 39.8 µM [inhibitor, partial curve, poor fit]",–
Cc1c(CC(=O)O)c(=O)oc2c(C)c(OCc3ccc(F)cc3)ccc12,"inconclusive: 25.1 µM [inhibitor, partial curve, poor fit]",–
CC(C)CN(C(=O)CN(C)C(=O)Cc1cccc2ccccc12)c1c(N)n(CC(C)C)c(=O)[nH]c1=O,–,inactive: -8.4%
COc1ccc(CNC(=O)c2cc3n(n2)CC(c2ccc4c(c2)OCO4)OC3)cc1 (stereo not given),"inconclusive: 28.2 µM [inhibitor, single point]",–
Cc1cccc(Cn2c(=O)n(-c3cc(C)cc(C)c3)c(=O)c3oc4ccccc4c32)c1,"inconclusive: 25.1 µM [inhibitor, partial curve, poor fit]",–

SMILES,Potency,"activity change, negative = inhibition"
O[C@@H]1C[C@@H](c2nc(-c3ccc4c(c3)OCO4)no2)N(Cc2ccncc2)C1,"inconclusive: 39.8 µM [inhibitor, partial curve, poor fit]",–
CC1=C[C@@H](CNC(=O)c2ccccc2)[C@H](C(C)C)C[C@H]1Cc1nnc(-c2cncn2C)o1,–,inactive: -35.3% [at 86.2 µM]
Cc1ccc(-c2nc(C(=O)N3CCN(c4cc(C)ccc4C)CC3)no2)cc1,"inconclusive: 17.8 µM [inhibitor, single point]",–
Cc1[nH]c2nc3ccccc3n2c(=O)c1Cc1ccccc1Cl,–,inactive: 6.87%
COc1ccc(CCNC(=O)c2ccc(Cn3c(=O)c4cccn4c4cccnc43)cc2)cc1OC,"inconclusive: 15.8 µM [inhibitor, partial curve, poor fit]",–
Cc1cc(C(=O)N2CCN(c3ccccc3F)CC2)c2c(C)nn(-c3ccccc3)c2n1,"inconclusive: 31.6 µM [inhibitor, partial curve, poor fit]",–
N#Cc1nc(-c2ccc(F)cc2)oc1NCC(c1cccs1)N1CCOCC1 (stereo not given),"inconclusive: 25.1 µM [inhibitor, partial curve, poor fit]",–
CCc1noc(-c2ccn3c(CNC(=O)C(CC)c4ccccc4)nnc3c2)n1 (stereo not given),–,inactive: -3350%
CN(C)c1ccc(-c2ccnc(N[C@H]3CO[C@H]4[C@@H]3OC[C@@H]4NC(=O)NCc3ccccc3)n2)cc1,active: 28.2 µM,–
CC(=O)c1ccc(NC(=O)C(C)Nc2ccc3oc(C)nc3c2)cc1 (stereo not given),"inconclusive: 8.91 µM [inhibitor, partial curve, poor fit]",–
CCOCCCNC(=O)c1cc(C)nc2ccc(C)cc12,"inconclusive: 31.6 µM [inhibitor, partial curve, poor fit]",–
Cc1ccccc1CN1Cc2nc(NCc3ccncc3)ccc2OCC1=O,active: 35.5 µM,–
COc1ccc(C)cc1NC(=O)Cn1c(N(C)Cc2ccccc2)nc(C)cc1=O,"inconclusive: 31.6 µM [inhibitor, partial curve, poor fit]",–
C#CCNC(=O)C1=NOC2CN(C(=O)c3ccn(C)n3)CC12 (stereo not given),–,inactive: 23.3% [at 149 µM]
O=c1cc(N2CCOCC2)oc2c(NCc3ccc(F)cc3)nccc12,active: 35.5 µM,–
COc1ccc(OC)c([S+](=O)([O-])c2nnn3c2nc(NCCCOC(C)C)c2ccccc23)c1,active: 89.1 µM,–
CN(Cc1ccccc1C#N)Cc1ccccc1N1CCCCC1,–,inactive: -5.13%
CC(C(=O)N1CCCN(C)c2ccccc21)c1ccccc1 (stereo not given),–,inactive: -6.98%
Cc1ccc(-c2cn3c(n2)CO[C@@H](CNS(C)(=O)=O)C3)cc1,active: 39.8 µM,–
N#Cc1ccc(N2C[C@@H]3OCC(=O)N(CC4CCCCC4)[C@@H]3C2)nc1,active: 35.5 µM,–
CCN1C(=O)CCC2(C(=O)Nc3ccc(C)c(F)c3)CCCC=C12 (stereo not given),–,inactive: -2.4%
CC(C)(C)C1CCC2(CC1)NC(=O)N(CC(=O)N1CCN(c3ccc(F)cc3)CC1)C2=O (stereo not given),–,inactive: -13.3%

SMILES,Potency,"activity change, negative = inhibition"
CCCCN(C)CCC(=O)Nc1cccc(F)c1,–,inactive: 0.818%
Cc1ccc(NC(=O)CSc2nc3ccc(NC(=O)c4ccco4)cc3s2)cc1,"inconclusive: 35.5 µM [inhibitor, partial curve, poor fit]",–
CN1[C@@H](CCC(=O)NCc2ccccc2)CNC(=O)[C@@H]2[C@H]1CCN2Cc1ccc(S(C)(=O)=O)cc1,"inconclusive: 25.1 µM [inhibitor, partial curve, poor fit]",–
CCn1cnc2c1c(=O)n(CC(=O)NCC1(c3ccccc3)CCCC1)c(=O)n2Cc1ccccc1,–,inactive: 1.57%
COC(=O)c1c(NC(=O)Cc2coc3cc(C)cc(C)c23)sc2c1CCC2,–,inactive: -0.31%
CC(C)c1ccc(C2C3=C(CC(C)(C)CC3=O)Nc3c2c(=O)n(C)c(=O)n3C)cc1 (stereo not given),"inconclusive: 31.6 µM [inhibitor, partial curve, poor fit]",–
CC(C)C(=O)Nc1nnc(-c2ccco2)s1,"inconclusive: 25.1 µM [inhibitor, partial curve, poor fit]",–
CCC(C)NC(=O)CCSc1nc(-c2ccc3c(c2)OCO3)cc(C(F)(F)F)n1 (stereo not given),"inconclusive: 14.1 µM [inhibitor, partial curve, poor fit]",–
COc1ccc(NC(=O)CCS(=O)(=O)c2nc(-c3ccc4c(c3)OCO4)cc(C(F)(F)F)n2)cc1OC,"inconclusive: 14.1 µM [inhibitor, partial curve, poor fit]",–
O=C(Nc1cccc(C(=O)OCc2cc(=O)n3c4c(sc3n2)CCCC4)c1)c1cccc(F)c1,"inconclusive: 25.1 µM [inhibitor, partial curve, poor fit]",–
O=C(CSc1nc2ccccc2o1)N(Cc1ccccc1)Cc1ccco1,–,inactive: -28.4%
O=C1CCCN1CC1CCN(C(=O)c2ccc(N3CC[C@@H](O)C3)nc2)CC1,"inconclusive: 31.6 µM [inhibitor, single point]",–
CCN(CC)C(=O)c1ccc(-c2nnc3ccc(NC(=O)C4CC4)cn23)cc1,active: 22.4 µM,–
COc1ccc(CN2CC3(C2)C(=O)N(Cc2ccc(C)o2)C(=O)[C@@H]2C[C@@H](O)CN23)cc1,"inconclusive: 25.1 µM [inhibitor, partial curve]",–
CCC(=O)Nc1ccc(-c2nc3cc(OC)ccc3o2)cc1,"inconclusive: 1.78 µM [inhibitor, partial curve, poor fit]",–
CN(Cc1nc2ccc(Cl)cc2[nH]1)C(=O)c1ccc2nccn2c1,"inconclusive: 35.5 µM [inhibitor, single point]",–
CC(C1CC1)N(Cc1ccccc1)C(=O)CSc1cc(C(N)=O)c2ccccc2n1 (stereo not given),–,inactive: -15.3%
COc1cccc(/C=C(\C#N)c2nc3ccccc3[nH]2)c1,"inconclusive: 39.8 µM [inhibitor, partial curve, poor fit]",–
CCCCCn1c(COc2ccccc2Cl)n[nH]c1=S,–,inactive: -18.1%
COC(=O)[C@@H]1Cc2ncn(Cc3ccccc3)c2CN1C(=O)c1ccc(OC)cc1,"inconclusive: 28.2 µM [inhibitor, partial curve]",–
O=c1cc(C(F)(F)F)[nH]c(=S)[nH]1,–,inactive: 4.93%
